# Source: paper PMC4336329 (PLoS ONE, 2015)
# The campaign covered roughly 310,000 compounds. About 2,200 (0.71%) showed an effect of 50% or more. Effects have a minus sign here. The list shows a part of the results.
# Target: human ether-à-go-go-related gene (hERG) potassium channel (human, UniProt Q12809)
# Test: primary screen, population patch clamp on CHO cells stably expressing hERG
# Chain of human ether-à-go-go-related gene (hERG) potassium channel (Q12809 whole entry, looked up): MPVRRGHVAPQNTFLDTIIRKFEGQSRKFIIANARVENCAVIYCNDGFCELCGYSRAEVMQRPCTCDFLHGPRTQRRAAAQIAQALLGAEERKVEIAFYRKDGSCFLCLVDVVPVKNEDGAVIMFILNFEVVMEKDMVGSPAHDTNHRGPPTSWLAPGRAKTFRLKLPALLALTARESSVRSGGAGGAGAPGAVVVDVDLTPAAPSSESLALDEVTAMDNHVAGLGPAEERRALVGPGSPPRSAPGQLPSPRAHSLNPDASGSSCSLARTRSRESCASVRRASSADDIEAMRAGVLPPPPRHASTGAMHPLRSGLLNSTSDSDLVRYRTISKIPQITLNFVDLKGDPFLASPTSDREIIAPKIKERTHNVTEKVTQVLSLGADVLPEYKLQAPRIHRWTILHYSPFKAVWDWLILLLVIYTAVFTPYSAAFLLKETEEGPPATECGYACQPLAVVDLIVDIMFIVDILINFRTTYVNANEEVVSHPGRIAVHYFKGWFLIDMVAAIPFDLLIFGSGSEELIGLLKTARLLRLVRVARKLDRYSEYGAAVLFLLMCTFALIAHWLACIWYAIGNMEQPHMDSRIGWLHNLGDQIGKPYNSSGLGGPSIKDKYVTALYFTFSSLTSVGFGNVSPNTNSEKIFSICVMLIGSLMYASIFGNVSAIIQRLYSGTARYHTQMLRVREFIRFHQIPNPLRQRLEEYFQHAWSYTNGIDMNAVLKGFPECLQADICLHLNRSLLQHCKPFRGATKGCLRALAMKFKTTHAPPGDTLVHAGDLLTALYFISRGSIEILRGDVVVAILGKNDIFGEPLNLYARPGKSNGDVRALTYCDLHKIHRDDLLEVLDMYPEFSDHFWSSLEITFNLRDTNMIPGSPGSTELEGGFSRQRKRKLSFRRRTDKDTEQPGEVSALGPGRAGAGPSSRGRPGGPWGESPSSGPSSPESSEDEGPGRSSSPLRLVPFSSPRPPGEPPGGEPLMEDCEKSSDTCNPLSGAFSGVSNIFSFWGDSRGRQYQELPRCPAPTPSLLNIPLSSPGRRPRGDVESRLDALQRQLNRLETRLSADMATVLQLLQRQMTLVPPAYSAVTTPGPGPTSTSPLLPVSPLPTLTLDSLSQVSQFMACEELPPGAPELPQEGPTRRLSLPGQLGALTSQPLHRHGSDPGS
row,SMILES,"hERG current change (%, negative = inhibition) at 1uM [%]"
1,CC(C)(C)c1ccc(-c2nc(NCc3cccnc3)c3ccccc3n2)cc1,4.24
2,COc1ccc(OC)c(C2=NOC(C(=O)NCc3cccs3)C2)c1 (centres unmarked),6.2
3,Cc1ccc(N2CC(C(=O)OCC(=O)Nc3ccc(Cl)cc3)CC2=O)cc1 (centres unmarked),9.74
4,N#CNC1=NCN(CCc2ccccc2)CN1,9.92
5,CCCOC(=O)C1[C@H]2C(=O)N(CCCOC)C[C@]23C=C[C@H]1O3 (some centres unmarked),-2.12
6,COc1ccc(Nc2ccc(S(=O)(=O)N3CCCCCC3)cc2[N+](=O)[O-])cc1,0.702
7,COc1ccc(S(=O)(=O)NCC(=O)NCCc2ccc(OC)c(OC)c2)cc1,14.9
8,COc1cccc(CNC(=O)c2ccc(S(=O)(=O)N3CCCC3)cc2)c1,8.02
9,CC1CCN(CC(=O)c2cccs2)CC1,1.87
10,O=C(CSc1nccc(=O)[nH]1)N1N=C2/C(=C/c3ccco3)CCCC2C1c1ccco1 (centres unmarked),12.1
11,COc1cccc(Nc2n[nH]c(=S)s2)c1,16.4
12,Cn1c(SCC(=O)NCc2ccco2)nnc1-c1ccc(S(=O)(=O)N2CCOCC2)cc1,3.83
13,CS(=O)(=O)N1CCN(Cc2ccc([N+](=O)[O-])cc2)CC1,4.07
14,CCCCN(C(=O)c1cccc(S(=O)(=O)N2CC(C)OC(C)C2)c1)c1c(N)n(CC(C)C)c(=O)[nH]c1=O (centres unmarked),7.82
15,O=C(Nc1nnc(C2CC2)s1)c1ccccn1,11
16,N#Cc1nc(-c2cccs2)oc1N1CCN(c2ccccc2)CC1,11
17,CC1(C)NC(=O)N(CC(O)COc2ccc(-c3ccc(C#N)cc3)cc2)C1=O (centres unmarked),-12.9
18,Cc1nnc(NC(=O)CSc2ccc(-c3cccnc3)nn2)s1,11.5
19,CC1CCN(Cc2cc(=O)oc3cc(O)c(Cl)cc23)CC1,12.4
20,Cc1cc(C(F)F)nn1CC(=O)NC1CCCC1,14.3
21,CO/N=C/C(=N\Nc1ccc(C)cc1)C(=O)c1ccc(OC)cc1,18.8
22,O=C(Oc1ccc(C(=S)N2CCOCC2)cc1)c1cccc(Cl)c1,17

row,SMILES,"hERG current change (%, negative = inhibition) at 1uM [%]"
1,CCN1CCN(C(c2cccs2)C(C)NS(=O)(=O)c2ccc(Br)cc2)CC1 (centres unmarked),-18.7
2,O=C(CSc1nc2c(sc3ccccc32)c(=O)n1CCCN1CCOCC1)NCC1CCCO1 (centres unmarked),2.38
3,CNc1nc(SCc2ccc(C)cc2)nc2c1CCCC2,9.95
4,Cc1cc(C)n2nc(S(=O)(=O)NC(C)(C)C)nc2n1,11.7
5,CN(C(=O)CSc1nnn(C)n1)c1ccccc1,10.9
6,O=C(O)CC(c1ccc(C(F)(F)F)cc1)N1Cc2ccccc2C1=O (centres unmarked),12.2
7,COCCN(C(=O)CNC(=O)c1ccco1)C(C(=O)NC1CCCC1)c1ccc(OC)c(OC)c1 (centres unmarked),4.84
8,Cc1occc1C(=O)Nc1sc2c(c1C(N)=O)CCCCC2,11.2
9,CCN(CC(=O)Nc1ccc(NC(C)=O)cc1)C(=O)C1CCC1,7.45
10,C=CCn1c(O)c(C=NCCN2CCOCC2)c(=O)[nH]c1=S,11
11,COc1ccc(/C=N/NC(=O)CNc2n[nH]c(=O)[nH]c2=O)cc1OC,11.8
12,CC1CCc2c(sc(NC(=O)C3CCCO3)c2C#N)C1 (centres unmarked),12.2
13,COc1ccc(-c2ccc3c(c2)c(-c2cccs2)c(-c2cc(OC)cc(OC)c2)n3C)cc1,17.3
14,O=C(Nc1cccc(Cl)c1)Nc1nc(-c2ccccc2)cs1,11.6
15,CCOC(=O)c1nnn(CC(=O)N2N=C(c3cccc4ccccc34)CC2c2ccccc2)c1C(=O)OCC (centres unmarked),-6.65
16,CC(C)(C)c1ccc(NC(=O)COC(=O)C2(C)CC2(Cl)Cl)cc1 (centres unmarked),13.1
17,CSc1ccc(CNCCCN(C)C)cc1.Cl,0.528
18,Cc1ccc(F)cc1NC(=O)N1c2ccccc2NC(=O)CC1C (centres unmarked),10.4
19,Cc1cccc(C(=O)Oc2ccc(/C=N/NC(=O)c3ccncc3)cc2)c1,0.148
20,Cc1ncc([N+](=O)[O-])n1CC(=O)Nc1ccc(F)c(Cl)c1,10.7
21,COc1ccc(C2C(C#N)=C(N)N(c3cccnc3)C3=C2C(=O)CCC3)cc1Cn1cc([N+](=O)[O-])cn1 (centres unmarked),5.05
22,COc1ccc(CNC(=O)CN(Cc2ccco2)C(=O)CNS(=O)(=O)c2ccc(C)cc2)cc1,-37.9
